# Assay results taken from publication PMC4336329 (PLoS ONE, 2015).
# About 2,200 (0.71%) of roughly 310,000 compounds showed an effect of 50% or more. The effect is printed as a negative number. This is one part of the list.
# Target: human ether-à-go-go-related gene (hERG) potassium channel (human, UniProt Q12809)
# Experiment: primary screen, population patch clamp on CHO cells stably expressing hERG
# human ether-à-go-go-related gene (hERG) potassium channel, sequence (Q12809 whole entry, looked up): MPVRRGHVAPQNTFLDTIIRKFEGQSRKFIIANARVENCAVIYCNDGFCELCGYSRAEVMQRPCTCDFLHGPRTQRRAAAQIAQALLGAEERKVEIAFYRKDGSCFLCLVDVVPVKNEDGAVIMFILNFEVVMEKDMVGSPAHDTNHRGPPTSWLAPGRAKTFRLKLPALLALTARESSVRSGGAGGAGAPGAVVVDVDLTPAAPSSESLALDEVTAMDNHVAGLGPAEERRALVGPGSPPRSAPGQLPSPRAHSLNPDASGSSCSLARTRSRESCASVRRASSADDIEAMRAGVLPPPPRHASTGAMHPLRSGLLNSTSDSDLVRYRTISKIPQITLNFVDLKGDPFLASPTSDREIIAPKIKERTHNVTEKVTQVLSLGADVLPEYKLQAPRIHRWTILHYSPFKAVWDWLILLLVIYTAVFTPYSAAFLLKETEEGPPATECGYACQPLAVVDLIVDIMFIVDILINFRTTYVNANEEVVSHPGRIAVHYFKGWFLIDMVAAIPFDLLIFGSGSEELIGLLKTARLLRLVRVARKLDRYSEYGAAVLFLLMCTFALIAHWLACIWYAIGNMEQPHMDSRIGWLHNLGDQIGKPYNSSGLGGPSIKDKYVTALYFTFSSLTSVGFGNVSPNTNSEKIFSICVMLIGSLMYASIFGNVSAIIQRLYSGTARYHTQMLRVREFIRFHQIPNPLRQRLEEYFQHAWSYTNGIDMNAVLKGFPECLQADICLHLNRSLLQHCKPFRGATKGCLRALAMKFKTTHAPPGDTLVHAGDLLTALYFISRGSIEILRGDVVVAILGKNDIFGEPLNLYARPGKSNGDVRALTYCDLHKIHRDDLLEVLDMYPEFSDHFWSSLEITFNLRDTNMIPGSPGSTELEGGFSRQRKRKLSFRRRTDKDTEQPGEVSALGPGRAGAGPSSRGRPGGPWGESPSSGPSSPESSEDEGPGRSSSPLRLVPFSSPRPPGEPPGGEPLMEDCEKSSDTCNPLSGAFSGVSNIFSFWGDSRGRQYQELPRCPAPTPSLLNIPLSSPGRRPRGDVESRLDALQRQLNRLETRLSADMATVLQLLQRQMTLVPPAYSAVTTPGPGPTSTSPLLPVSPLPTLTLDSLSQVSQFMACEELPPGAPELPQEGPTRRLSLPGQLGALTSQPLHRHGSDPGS
row,SMILES,"hERG current change (%, negative = inhibition) at 1uM [%]"
1,O=C(CSc1nnc(CNC(=O)c2ccc(F)cc2)o1)Nc1nccs1,13.2
2,COc1ccccc1CN1CCCCC1c1cccnc1 (centres unmarked),0.665
3,c1coc(C2=Nc3cccc4cccc(c34)N2)c1,12
4,CCOCCCNC(=O)C1CCN(S(=O)(=O)CC)CC1,6.21
5,Cc1nn(-c2ccccc2)c(C)c1NC(=O)COC(=O)c1ccc(Cl)c(S(N)(=O)=O)c1,1.42
6,O=C(COC(=O)/C=C/c1cccs1)NC1CC1,7.72
7,O=C(CSc1nnc(-c2ccco2)n1CC1CCCO1)NC1CCCC1 (centres unmarked),4.72
8,Cc1ccc(OCC(O)Cn2c(N3CCOCC3)nc3c2c(=O)[nH]c(=O)n3C)cc1 (centres unmarked),6.77
9,CSc1ccccc1OCc1cc(C(=O)NCCCn2nc(C)cc2C)no1,-3.19
10,CNC(=O)c1ccsc1NC(=O)c1ccc2c(c1)CCCC2,2.22
11,CCCC1CCC(=NNS(=O)(=O)c2ccc(C)c([N+](=O)[O-])c2)CC1 (centres unmarked),15.5
12,C=CCNc1nc(N)c([N+](=O)[O-])c(Nc2cccc(Cl)c2)n1,6.59
13,Cc1nonc1OCCNc1ccc([N+](=O)[O-])c2cccnc12,9.85
14,CCOC(=O)c1cc(C#N)c(N2CCCCC2)nc1-c1ccccc1,9.34
15,CCS(=O)(=O)Nc1cc2c3c(c1)CCC(=O)N3CCC2,20.4
16,Cc1cc(NC(=O)Nc2cccc(C(F)(F)F)c2)n(C)n1,5.49
17,COc1cccc(N2CCN(C(=O)c3ccc4nc[nH]c4c3)CC2)c1,11
18,CN1C(=O)C(=O)/C(=C(/O)c2ccccc2)C1c1ccccc1 (centres unmarked),15
19,Cc1c(NC(=O)COC(=O)c2cc3c4ccccc4n(C)c3s2)c(=O)n(-c2ccccc2)n1C,17.3
20,N/C(=N\OC(=O)/C=C/c1ccccc1)c1cccnc1,7.56
21,N#Cc1ccc(C(=O)OCC(=O)Nc2ccc(N3CCOCC3)cc2)cc1,8.85
22,CCCN(C(=O)CCOc1ccc(C(C)(C)C)cc1)c1c(N)n(Cc2ccccc2)c(=O)[nH]c1=O,18

row,SMILES,"hERG current change (%, negative = inhibition) at 1uM [%]"
1,Cn1c(=O)c2c(SCC(=O)NCc3ccco3)nc(-c3ccccc3Cl)nc2n(C)c1=O,9.32
2,O=C(COC(=O)Cc1ccccc1F)Nc1ccc2c(c1)OCO2,10.2
3,COc1ccccc1C(=O)Nc1ccc(NC(=O)c2ccco2)c(C)c1,12.8
4,COc1cccc(/C=C/C(=O)OCC(=O)NCc2ccc(Cl)cc2)c1,13.1
5,COc1ccc(NC(=O)CC2SC(=Nc3ccccc3)NC2=O)cc1 (centres unmarked),4.81
6,Cc1ccc2c(NC(=O)c3ccc(Br)o3)cccc2n1,10.9
7,CCOC(=O)c1ccc(NC(=S)N2CCCC(C(=O)OCC)C2)cc1 (centres unmarked),7.55
8,CCCc1cc(=O)oc2cc(OCC(=O)NCC(O)c3ccccc3)ccc12 (centres unmarked),21.5
9,COc1ccc([N+](=O)[O-])cc1NC(=O)c1cncc(Br)c1,3.96
10,Cc1ccccc1NC(=O)C1=CC=CN2CCS(=O)(=O)N=C12,6.16
11,CCOc1cc(N2C(=O)CC3CS(=O)(=O)CC32)c(OCC)cc1NC(=O)c1ccccc1 (centres unmarked),7.45
12,CCOc1ccc(-n2c(CC)nc3ccccc3c2=O)cc1,14.1
13,Cc1c2cnn(CC(=O)NCCN3CCOCC3)c(=O)c2c(C)n1Cc1ccc(F)cc1,11.9
14,CCOc1ccccc1NC(=O)c1cc(S(=O)(=O)N2CCC3(CC2)OCCO3)ccc1F,-3.87
15,CC1c2ccsc2CCN1S(=O)(=O)c1cccs1 (centres unmarked),5.14
16,CCN1CCN(CCNC(=O)c2ccc(/C=C3/Sc4ccccc4N(Cc4cccc(Cl)c4)C3=O)cc2)CC1,10.3
17,COc1ccc(N=C2CCCN2CC(N)=O)cc1.Cl,2.76
18,COc1ccc(C(=O)Nc2cc3c4c(c2)C(C)C(=O)N4CCC3)cc1OC (centres unmarked),1.64
19,NC(=O)C1CCN(C(=O)CC2C(=O)NCCN2Cc2cccc(Oc3ccccc3)c2)CC1 (centres unmarked),9.04
20,Nc1ccc(C(=O)OCc2nc3cc4ccccc4cc3[nH]2)cc1,15.8
21,CCOC(=O)c1sc(NC(=O)c2cc3n(n2)C(C(F)(F)F)CC(c2cccs2)N3)c(C(=O)OCC)c1C (centres unmarked),5.02
22,CCOc1cccc2sc(N(CCN(CC)CC)C(=O)c3ccc(S(=O)(=O)N4CCCC4)cc3)nc12.Cl,-6.23

row,SMILES,"hERG current change (%, negative = inhibition) at 1uM [%]"
1,CCn1cc(C(=O)N2CCCC2)c(=O)c2cc(S(=O)(=O)N3CCOCC3)ccc21,13.2
2,C=C1CCN([C@H](C(=O)Nc2ccc(OC)cc2)C(C)C)S(=O)(=O)c2ccccc21,3.63
3,COc1ccc(Cl)c2sc(N3CCN(C(=O)C4=COCCO4)CC3)nc12,-2.18
4,O=C(NC(=S)Nc1ccc(CN2CCOCC2)cc1)c1ccccc1[N+](=O)[O-],5.86
5,CCOC(CNC(=O)C1CCN(S(=O)(=O)c2ccc3nc4c(c(C(=O)O)c3c2)CC(C)CC4)CC1)OCC (centres unmarked),8.7
6,COc1ccc2[nH]c(C(=O)N/N=C/c3ccccc3OC)cc2c1,15.8
7,CCCCn1c(N)c(N(CCC(C)C)C(=O)c2cc(-c3ccco3)nc3ccccc23)c(=O)[nH]c1=O,13.3
8,Cc1cccc(OCC(=O)O/N=C(\N)c2ccccn2)c1,14.7
9,COCCNC(=O)CCc1c(C)nc2c(c(C)nn2-c2ccc(C)c(C)c2)c1C,11.9
10,Cc1ccccc1C(=O)c1cccn1CC(=O)NC(C)c1ccccc1 (centres unmarked),15.1
11,N#Cc1cccc(C#N)c1N1CCC(C#N)CC1,8.75
12,O=[N+]([O-])c1ccc(N2CCN(Cc3cccc([N+](=O)[O-])c3)CC2)cc1,-18
13,COc1ccc(C(=O)NC(=O)Nc2cc(C)ccn2)cc1,7.47
14,Cc1c(N=C2NC(=O)C(CC(=O)Nc3ccccc3)S2)c(=O)n(-c2ccccc2)n1C (centres unmarked),4.34
15,CN(Cc1ccccc1)C(=O)c1[nH]cnc1C(=O)N[C@@H](Cc1ccccc1)C(=O)OCc1ccccc1,12.2
16,CCC1(c2ccc(F)cc2)NC(=O)N(CC(=O)N2CCc3ccccc3C2)C1=O (centres unmarked),5.78
17,CCCOC(=O)Nc1ccc(N2CCCCC2)cc1,0.301
18,COc1ccc(S(=O)(=O)c2nnn(-c3cccc(Cl)c3)c2N)cc1,12.4
19,CC(=O)Nc1ccc(C(=O)CSc2ncn(-c3ccccc3)n2)cc1,8.53
20,CCn1c(SC)nnc1C1CCCN(CC(=O)Nc2ccccc2N2CCOCC2)C1 (centres unmarked),0.921
21,CC(=O)N1N=C2c3ccccc3CCC2C1c1cccs1 (centres unmarked),10.8
22,O=C(Nc1cnn(Cc2ccc(Cl)cc2)c1)c1cccs1,0.901

row,SMILES,"hERG current change (%, negative = inhibition) at 1uM [%]"
1,CC(=O)Nc1nc(-c2ccc3c(c2)CC(C)N3C(=O)C2CC2)c(C)s1 (centres unmarked),5.69
2,O=C1c2ccccc2NC(c2ccc(-c3cccs3)o2)N1O (centres unmarked),1.4
3,COC(=O)C1=C(C)N(Cc2ccccc2)C(=O)N[C@H]1c1cccs1,9.04
4,CC1CCN(CCc2nc3cc(NC(=O)NC4CCCCC4)ccc3n2C)CC1,-6.23
5,COc1ccccc1NS(=O)(=O)c1cccc(NC(=O)C2CC(=O)N(Cc3ccccc3)C2)c1 (centres unmarked),13.6
6,O=C(COC(=O)c1cc(NS(=O)(=O)c2cccs2)ccc1O)Nc1cc(Cl)ccc1Cl,11.7
7,Cc1nn2c(N)csc2nc1=O,0.607
8,O=[N+]([O-])c1ccc(/C=N/Nc2nc(NCc3ccccc3)nc(N3CCOCC3)n2)cc1,9.85
9,Cc1nn(-c2ccccc2)c(C)c1NC(=O)COC(=O)c1ccc(O)cc1O,1.74
10,Cc1cc(-c2nnc(-c3cccc(Cl)c3)o2)no1,-0.554
11,N=C1C(c2nc3ccccc3[nH]2)=C(O)CN1NC(=O)c1c[nH]c2ccccc12,7.66
12,O=C(CNCC1CCCO1)Nc1ccc([N+](=O)[O-])cc1C(=O)Nc1ccccc1F (centres unmarked),4.9
13,O=C(Cc1c[nH]c2ccccc12)Nc1ccccc1N1CCOCC1,10.2
14,COc1ccc(N2CN=C3SCC(=O)N3C2)cc1,15.7
15,CC(=O)c1ccc(NC(=O)c2onc(C)c2Cl)cc1,14
16,COc1ccc(NC(=O)CSC2=C(C#N)C(c3ccco3)C(C(=O)Nc3nc4ccccc4s3)=C(C)N2)cc1 (centres unmarked),16.3
17,O=C(N/N=C/c1cccc(Oc2ccccc2)c1)c1ccccc1Br,20.8
18,CCn1ncc(Br)c1C(=O)Nc1ccc(-c2ccno2)cc1,12
19,O=C(NCc1ccccc1)C(=O)Nc1nccs1,11.7
20,O=C(c1cccs1)N1CCN(C(=O)C(c2ccccc2)c2ccccc2)CC1,-7.9
